In all, about 50,000 compounds went through this assay and about 800 (1.6%) showed an effect of 50% or more. Some of the results follow.
Molecular target: Bcl-2-like protein 10 (Homo sapiens) (UniProt Q9HD36)
Experiment: TR3 peptide-Bcl-B binding displacers, biochemical primary FP assay, phenotype converters (AID 1240);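 further: 0% = Bcl-B with tracer peptide and DMSO and 100% = tracer peptide lacking Bcl-B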
Conditions: GST-Bcl-B / FITC-TR3 peptide fluorescence polarization; stronger effect = higher value; compound at 3.75 mg/L

UniProt Q9HD36, sequence (Q9HD36 whole entry, looked up): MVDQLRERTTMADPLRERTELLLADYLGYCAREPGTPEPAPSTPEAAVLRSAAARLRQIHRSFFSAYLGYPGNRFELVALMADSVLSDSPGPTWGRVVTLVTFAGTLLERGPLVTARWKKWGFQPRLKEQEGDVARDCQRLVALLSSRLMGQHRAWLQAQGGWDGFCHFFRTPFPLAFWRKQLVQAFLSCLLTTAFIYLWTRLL

SMILES | displacement
COc1ccc(OC)c(NC(=O)C2C3CCC(O3)C2C(=O)O)c1 (configuration not stated) | 6.9%
Cc1ccnc(NC(=O)COc2ccc(C)c(C)c2)c1 | 3%
CCOC(=O)COc1ccc(/C=C2/NC(=S)NC2=O)cc1OC | -3.3%
O=C1CCSc2nc(-c3cccc([N+](=O)[O-])c3)nn21 | 8.8%
COc1ccc(CCNC(=O)c2c(-c3ccccc3Cl)noc2C)cc1OC | 13.1%
CC(C)(C)c1cc(Br)ccc1OCC(=O)Nc1ccccc1Cl | -14.6%
Cn1cccc1CN1CCN(Cc2cc(Br)ccc2O)CC1 | 10.7%
O=C(Nc1ccccc1)c1ccccc1N=Cc1ccc(Cl)c([N+](=O)[O-])c1 | 6.6%
CC1CN(C)C(C)CC1NCc1ccccc1 (configuration not stated) | 0.1%
CCC1(C)CC(CC#N)(c2ccc(OC)cc2)CCO1 (configuration not stated) | -3.1%
COc1cc(NC(=O)c2cccc(F)c2)cc(OC)c1 | 2.1%
O=C(COc1ccc(Cl)cc1Br)Nc1ccc2c(c1)OCO2 | -6.7%
COC(=O)C1C(=O)CC(C)(O)C(C(=O)OC)C1c1ccc2c(c1)OCO2 (configuration not stated) | -3.7%
CC1CN(Cc2c(O)ccc3c(-c4ccccc4)cc(=O)oc23)CC(C)O1 (configuration not stated) | 10.9%
O=C(/C=C/c1cc(Br)cs1)Nc1ccccc1 | 11.3%
O=C1N/C(=N/N=C/c2ccccc2)SC1Cc1cccc(Cl)c1 (configuration not stated) | 22.9%
CC(=O)N(C)c1ccc(NC(=O)c2ccccc2I)cc1 | -7.3%
CN1CCN(C(=O)CC23CC4CC(CC(C4)C2)C3)CC1 | -9.2%
O=C(NCc1ccco1)c1c(Cl)cccc1Cl | -1.9%
CCCC(=O)c1ccc(N2CCN(C(=O)CCC)CC2)c(F)c1 | 7.1%
CCCC/C(C)=N\NC(=O)C(=O)NC(C)C | -9.4%
NC(=O)c1cc(NC(=O)c2cccc(F)c2)ccc1Cl | 11.8%
COc1ccc(/C(O)=C/c2nc3ccccc3oc2=O)cc1 | -1.7%
CCOc1cc(/C=C2/SC(=S)N(Cc3ccccc3)C2=O)ccc1OC(=O)c1cccc([N+](=O)[O-])c1 | 7.5%

SMILES | displacement
O=c1c2c3c(sc2n2c(=S)[nH]nc2n1-c1ccccc1)CCCC3 | -9%
CCCc1ccc(-c2nc(Cc3ccccc3OC)no2)cc1 | -7.7%
COCCOC(=O)c1c(C)oc2ccc(OC(=O)c3sc4ccccc4c3Cl)cc12 | 7.3%
CCOC(=O)c1c(NC(=O)c2ccc([N+](=O)[O-])cc2)sc2c1CCN(C(=O)OCC)C2 | -5.4%
COC(=O)c1cc(C(=O)NC2CCCCCC2)cc([N+](=O)[O-])c1 | 5.9%
CC(=O)Nc1ccccc1C(=O)N1CCN(c2ccccc2)CC1 | -5.1%
O=C(NCc1ccccc1Cl)C(=O)Nc1ccccc1F | 3.8%
O=[N+]([O-])c1ccc(-c2cc(-c3ccc(I)cc3)n[nH]2)cc1 | 0.5%
COc1ccc(Cc2nnc(N)s2)cc1 | 10.9%
CC1=CC(=O)C=C/C1=N/OC1=C(O/N=C2/C=CC(=O)C=C2C)C(=O)c2ccccc2C1=O | 20.8%
Cc1ccc(O)c(NC(=O)c2cc3n(n2)C(C(F)(F)F)CC(c2ccc(F)cc2)N3)c1 (configuration not stated) | 0.7%
COc1ccc(C(=O)Nc2ccc(F)c([N+](=O)[O-])c2)cc1Br | 15%
CC(=O)N1c2ccccc2C(N(C(=O)c2ccc([N+](=O)[O-])cc2)c2ccccc2)CC1C (configuration not stated) | -4%
CCOC(=O)/C(C#N)=C/c1ccc(OCc2c(C)no[n+]2[O-])c(OC)c1 | -3.8%
Cn1c(O)c(N=NS(=O)(=O)c2ccccc2)c2ccccc21 | 10%
Cc1ccc(NCCCC(=O)N/N=C/c2cccs2)cc1 | -6.6%
CCOC(=O)C1=C(C)NC(=S)NC1c1cccc(Br)c1 (configuration not stated) | 8.9%
O=C(NCCc1ccccc1)c1ccc(Cl)c([N+](=O)[O-])c1 | 2.2%
O=C(COc1ccccc1Cl)Nc1ccc(O)cc1C(=O)O | 10%
Cc1cccc(/C=C2/SC(=S)N(CN3CCCCC3)C2=O)c1 | 11.3%
CC(C)(C)NC(=O)NC12CC3CC(CC(C3)C1)C2 | 17.9%
O=C(Nc1nccs1)c1ccc(N2C(=O)CCC2=O)cc1 | 7.8%
O=C(CC1Sc2ccc(C(F)(F)F)cc2NC1=O)Nc1cccc(Cl)c1 (configuration not stated) | -13.4%
Cc1cc(C=O)c(C)n1-c1cccc([N+](=O)[O-])c1 | 12.3%

SMILES | displacement
O=C(NC(Nc1ccc(Br)cc1)C(=O)c1ccccc1)c1ccco1 (configuration not stated) | 4.5%
CCOc1ccc(NC(=O)/C=C/c2cccc(C(F)(F)F)c2)cc1 | 15.4%
COc1ccc(OC)c(NC(=O)c2ccc(-c3ccc(C)c(Cl)c3)o2)c1 | 0.4%
CC1CCCN(Cc2c(O)[nH]c(=S)[nH]c2=O)C1 (configuration not stated) | -4%
Cc1ccc(-c2nnc(NC(=O)Nc3ccccc3)s2)cc1C | 9.8%
CCCCNC(=O)c1cn(-c2ccccc2)nc1-c1ccccc1 | 17.4%
CCOC(=O)c1nc(NC(=O)c2cc3ccccc3o2)sc1C | -2.7%
Cc1ccc(/C(O)=C2/C(=O)C(=O)N(CCCCCC(=O)O)C2c2cccc([N+](=O)[O-])c2)cc1 (configuration not stated) | 25.6%
O=C(CSCC(=O)Nc1cccc(C(F)(F)F)c1)Nc1ccccc1 | -10.4%
O=C(NNC(=O)c1ccc2c(c1)OCO2)NC1CCCCC1 | 10.1%
Cc1ccc(S(=O)(=O)N/N=C/c2ccc(-c3ccc([N+](=O)[O-])cc3Br)o2)cc1 | 2.5%
O=C(Nc1ccccc1O)c1ccc(-c2ccc(Cl)cc2Cl)o1 | 8.6%
COC(=O)c1cc(C(=O)Nc2cccc(Br)c2)cc([N+](=O)[O-])c1 | 5.9%
COc1ccc(OC)c(NC(=O)CSc2nc3ccccc3s2)c1 | -2.8%
CCC(C(=O)Nc1ccc(Br)cc1F)c1ccccc1 (configuration not stated) | -2.6%
O=[N+]([O-])c1ccc(Sc2nc3ccccc3s2)nc1 | 49.1%
O=C(Nc1ccc(Br)cc1)c1cnccn1 | 26.7%
CCOC(=O)c1c(CN2CCOCC2)n(C)c2cc(Br)c(O)cc12 | 16.2%
CCN(CC)C(=O)c1sc(NC(=O)c2ccco2)c(C(=O)OC(C)C)c1C | -1.8%
O=C(c1ccccc1SCc1ccccc1)N1CCOCC1 | -8.4%
Clc1ccccc1CSc1nc2ccccc2o1 | -4.2%
N#Cc1c(NC(=O)c2cc3nc(-c4ccccc4)cc(C(F)(F)F)n3n2)sc2c1CCCC2 | -10.7%
CC(=O)c1sc(NC(=O)c2cc(Cl)ccc2[N+](=O)[O-])nc1C | 6.6%
CCOc1ccccc1-c1nc(SCC(N)=O)n[nH]1 | -15.6%

— PubChem BioAssay AID1240 (Sanford-Burnham Center for Chemical Genomics, 2008)
